Among all 310,000 compounds or so, about 14,000 (4.5%) showed an effect of 50% or more. The effect is printed as a negative number. Some of the results follow.
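Also: peak tail current of the secondary pulse compared with the same well before compound.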

The assay deals with human ether-à-go-go-related gene (hERG) potassium channel (human, UniProt Q12809). The experiment in a line: primary screen, population patch clamp on CHO cells stably expressing hERG.
Sequence of human ether-à-go-go-related gene (hERG) potassium channel (Q12809 whole entry, looked up): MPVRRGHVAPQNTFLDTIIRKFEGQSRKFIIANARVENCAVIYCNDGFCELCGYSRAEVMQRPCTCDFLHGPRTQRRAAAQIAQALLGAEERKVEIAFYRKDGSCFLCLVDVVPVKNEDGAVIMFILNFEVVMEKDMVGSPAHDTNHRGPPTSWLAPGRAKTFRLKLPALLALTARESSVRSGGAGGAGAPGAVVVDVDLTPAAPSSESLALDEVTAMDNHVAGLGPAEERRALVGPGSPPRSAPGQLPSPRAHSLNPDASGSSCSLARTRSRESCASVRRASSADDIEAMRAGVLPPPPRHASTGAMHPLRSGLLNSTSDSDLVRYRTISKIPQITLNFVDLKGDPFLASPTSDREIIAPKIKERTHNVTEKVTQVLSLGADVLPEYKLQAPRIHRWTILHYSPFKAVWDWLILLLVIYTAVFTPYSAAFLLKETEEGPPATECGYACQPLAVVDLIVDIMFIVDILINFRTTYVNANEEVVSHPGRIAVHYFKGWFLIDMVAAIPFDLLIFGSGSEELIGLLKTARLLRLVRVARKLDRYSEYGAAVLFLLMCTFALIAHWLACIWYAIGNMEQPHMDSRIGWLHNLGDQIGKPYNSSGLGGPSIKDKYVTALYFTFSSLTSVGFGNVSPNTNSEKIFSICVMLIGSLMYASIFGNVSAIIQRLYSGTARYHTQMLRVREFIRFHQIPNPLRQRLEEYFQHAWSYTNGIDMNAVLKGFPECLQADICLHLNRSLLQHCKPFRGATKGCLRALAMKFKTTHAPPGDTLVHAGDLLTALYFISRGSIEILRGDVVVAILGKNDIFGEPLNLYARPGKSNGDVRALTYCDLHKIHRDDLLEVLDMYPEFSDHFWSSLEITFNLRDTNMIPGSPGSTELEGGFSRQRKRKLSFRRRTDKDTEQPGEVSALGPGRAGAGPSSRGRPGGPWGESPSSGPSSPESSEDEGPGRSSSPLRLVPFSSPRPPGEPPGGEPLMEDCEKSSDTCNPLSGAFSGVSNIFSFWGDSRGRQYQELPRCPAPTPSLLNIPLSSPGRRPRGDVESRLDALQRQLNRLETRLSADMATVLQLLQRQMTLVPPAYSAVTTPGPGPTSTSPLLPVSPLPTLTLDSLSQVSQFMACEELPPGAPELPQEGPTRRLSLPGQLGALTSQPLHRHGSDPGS
In the case of `Cc1ccc(NC(=O)CC2(CC(=O)O)CCCC2)c(C)c1`, the “hERG current change (%, negative = inhibition) at 10uM” value is recorded as 15.6%.
For the compound `COc1ccc(C(CNC(=O)c2ccc(S(=O)(=O)N(C)C)cc2)N(C)C)cc1` (stereo not drawn), the “hERG current change (%, negative = inhibition) at 10uM” value was -9.83%.
With `Cl.Clc1cccc(Cl)c1NC1=NCCN1`, the “hERG current change (%, negative = inhibition) at 10uM” value is on record as 18.8%.
On to `COc1cc(C)c(N(C(C)=O)c2ccccc2)c(C)c1`, for which the “hERG current change (%, negative = inhibition) at 10uM” value is -5.28%.
With `Cc1ccc2c(c1)C1(OCCCO1)C(=O)N2CC(=O)NN`, the “hERG current change (%, negative = inhibition) at 10uM” value is given as 9.91%.
Then `COc1ccc(C)cc1NC(=O)C1CCCN(S(=O)(=O)c2cccc3cccnc23)C1` (stereo not drawn), with -20.2%; and `CC(C)(C)n1[nH]c2c3c(ccc2c1=O)C(=O)c1ccccc1C3=O`, with 17.8%; and `CC1=NCC(C)c2c1[nH]c1ccccc21` (stereo not drawn), with -11.5%.
Under `Cc1cccc(C)c1N1C(=O)CC(N(O)c2ccccc2)C1=O` (stereo not drawn) stands 10.7%; under `COc1ccc(-n2c(N)c(C(=O)NCC3CCCO3)c3nc4ccccc4nc32)c(OC)c1` (stereo not drawn), -9.82%.
Under `CCCN1C(=O)c2ccc(C(=O)Nc3ccc4c(c3)OCO4)cc2C1=O` stands 6.67%; under `CCNC(=S)N(CCc1c(C)[nH]c2ccccc12)Cc1cccnc1`, -21.3%.
For the compound `CCCc1nc2c(sc3nc4c(cc32)COC(C)(C)C4)c(=O)n1CCN(C)C`, the “hERG current change (%, negative = inhibition) at 10uM” value is on record as -9.65%.
Then `C=CCN1C(=O)C(O)(CC(=O)c2ccccc2)c2ccccc21` (stereo not drawn), with 7.64%; and `CCOc1cccc2c1OC1(C)CC2NC(=O)N1c1cccc(C(=O)NCc2ccccn2)c1` (stereo not drawn), with 10.5%; and `O=C(COC(=O)c1ccccc1Nc1ccccc1)NCc1ccccc1Cl`, with -2.83%.
Consider `COc1ccc(N(CC(=O)NCc2ccccc2OC)S(=O)(=O)c2ccc(C)cc2)cc1Cl`, for which the “hERG current change (%, negative = inhibition) at 10uM” value is recorded as -8.53%.
On to `N#Cc1c(NC(=O)CSc2nc(N)cc(=O)[nH]2)sc2c1CCCCCC2`, for which the “hERG current change (%, negative = inhibition) at 10uM” value is given as -18.9%.
`Nc1c(Cl)cc(-c2csc(NC(CO)c3nc4ccccc4n3CCOCCO)n2)cc1Cl` (stereo not drawn): the “hERG current change (%, negative = inhibition) at 10uM” value is -2.73%.
Then `CCN(C(=O)CSc1nc2ccccc2n1CC)C1CCS(=O)(=O)C1` (stereo not drawn), with 0.264%; and `C=CCn1c(SCc2ccccc2)nc2scc(-c3ccc(C)o3)c2c1=O`, with 8.76%.
Under `CCC(CC)C(=O)Nc1cccc(C(=O)N2CCCC2)c1` stands 13.1%.
Under `Cc1ccccc1N=Nc1c(C)[nH]n(C(N)=S)c1=O` stands 17.9%; under `O=C(N/N=C/c1ccccc1)c1cccc2ccccc12`, 18.4%.
As for `CCn1c(SCC(=O)Nc2ccc3c(c2)OCCO3)nnc1-c1c[nH]c2ccccc12`, the “hERG current change (%, negative = inhibition) at 10uM” value amounted to 10.3%.
`CCOC(=O)c1ccc(NC(=O)c2cc3c(s2)CCC3)cc1`: the “hERG current change (%, negative = inhibition) at 10uM” value was 6.15%.
`O=C(Cn1cc([N+](=O)[O-])cn1)NC1CCCCCC1`: the “hERG current change (%, negative = inhibition) at 10uM” value was found to be 0.394%.
Under `CCOC(=O)Cc1sc(N)nc1C` stands 20.4%; under `Cc1nc(SCCOc2ccc(F)cc2)c2ccccc2n1`, 7.16%; under `CC1Cc2cc(S(=O)(=O)N3CCN(c4ccc(Cl)cc4)CC3)ccc2N1C(=O)C1CC1` (stereo not drawn), 13.5%.
Regarding `Cc1ccc(C)c(S(=O)(=O)NCc2ccc(C(=O)N3CC(C)OC(C)C3)cc2)c1` (stereo not drawn), the “hERG current change (%, negative = inhibition) at 10uM” value is reported as -7.68%.
Then `CN(Cc1ccccc1)c1ccc2nnc(-c3ccccc3)n2n1`, with -48.1%; and `CN1CCN(C(c2ccc(C(F)(F)F)cc2)c2cc(Cl)c3cccnc3c2O)CC1` (stereo not drawn), with 12.3%; and `O=c1c2c3c(sc2ncn1/N=C/c1ccco1)CCCC3`, with -15.4%.
Under `CSc1nsc(SCC(=O)Nc2ccc(Br)cn2)n1` stands 1.37%.
Take `COc1ccccc1N1CCN(C(=O)/C=C/c2ccco2)CC1`: the “hERG current change (%, negative = inhibition) at 10uM” value was -4.76%.
`Cc1[nH]nc2c1C(c1ccco1)C(C#N)=C(N)O2` (stereo not drawn): the “hERG current change (%, negative = inhibition) at 10uM” value amounted to 18.4%.
Under `Cc1ccc2nc(NC(=O)C3CCN(S(=O)(=O)c4cccc5nsnc45)CC3)sc2c1` stands 8.3%; under `CC1=CC(=C(C#N)C#N)C=C(C)N1CCN1CCN(C(=O)Nc2cccc(Cl)c2)CC1`, 9.89%; under `O=C(C1CC1)N1CCN=C1SCc1ccccc1`, 4.06%.
Then `Cc1onc(-c2ccccc2)c1C(=O)Nc1nnc(C(C)(C)C)s1`, with 6.05%.
With `CC(C)CN(C(=O)COC(=O)Cc1cccc2ccccc12)c1c(N)n(Cc2ccccc2)c(=O)[nH]c1=O`, the “hERG current change (%, negative = inhibition) at 10uM” value is listed as 4.24%.
Under `O=C(Nc1ccccc1Cl)N1CCCN(c2nc(-c3ccccc3)ns2)CC1` stands -6.02%.
As for `O=C(Nc1ccccc1)Nc1sccc1-c1nc2ccccc2s1`, the “hERG current change (%, negative = inhibition) at 10uM” value is on record as -3.45%.
Consider `O=C(Nc1ccccc1)N1CCN(c2ccccn2)CC1`, for which the “hERG current change (%, negative = inhibition) at 10uM” value is listed as -9.11%.
Then `NC(=O)c1c(NC(=O)CN2C(=O)NC(Cc3ccccc3)C2=O)sc2c1CCC2` (stereo not drawn), with -26.6%; and `O=C1CCC(=O)N1c1ccc(NCCc2cccc(F)c2)c([N+](=O)[O-])c1`, with 8.65%; and `O=C(N/N=C/c1c(O)n(Cc2ccc(F)cc2)c(=O)[nH]c1=O)c1ccccc1O`, with 14.1%.
In the case of `CN(c1ccccc1)S(=O)(=O)c1ccc(C(=O)Nc2nnc(C3=COCCO3)o2)cc1`, the “hERG current change (%, negative = inhibition) at 10uM” value is listed as -40.3%.
Take `Cc1cc(NC(=O)c2oc3ccccc3c2C)ccc1-n1cnnn1`: the “hERG current change (%, negative = inhibition) at 10uM” value is listed as -17.8%.
For the compound `COc1ccc(CC(=O)n2[nH]c(=O)c3ccccc3c2=O)cc1OC`, the “hERG current change (%, negative = inhibition) at 10uM” value worked out at 12.2%.
Then `Cn1c(CC2Sc3ccccc3NC2=O)nnc1SCC(=O)c1ccc(Cl)cc1` (stereo not drawn), with -9.27%; and `Cc1cc(N/N=C/c2ccc(O)cc2)nc(NS(=O)(=O)c2ccccc2)n1`, with 20.1%; and `COC(=O)c1c(C)cc(OC(C)=O)c(C)c1OC(C)=O`, with 17%.
Under `CCOC(=O)c1[nH]c(C)c(C(=O)OCC(=O)NC2CCS(=O)(=O)C2)c1C` (stereo not drawn) stands 17.6%; under `Cc1ccc(C(=O)NNC(=O)c2cc(OCC(F)(F)F)ccc2OCC(F)(F)F)cc1`, -13.9%; under `CCOC(=O)N1CCN(C(=S)NC(=O)c2ccc(F)cc2)CC1`, -4.09%.
Then `COc1ccc(CNCCC(c2ccc(F)cc2)c2ccc(OC(C)C)cc2)cc1OC` (stereo not drawn), with -73%; and `O=C(OCCNc1ncc(C(F)(F)F)cc1Cl)c1ccc(S(=O)(=O)N2CCOCC2)cc1`, with -3.15%; and `Cn1c(=O)n(C)c2cc(NC(=O)c3cccc([N+](=O)[O-])c3)c(Br)cc21`, with -7.32%.
As for `COC(=O)c1cn(NC(=O)Cc2ccc(Cl)c(Cl)c2)c(=O)c2ccccc12`, the “hERG current change (%, negative = inhibition) at 10uM” value came out at 8.58%.
Under `CC(=O)c1ccc(N2CCN(C(=O)c3ccc(NC4=NC5CS(=O)(=O)CC5S4)cc3)CC2)cc1` (stereo not drawn) stands -1.77%; under `Cc1c(NC(=O)c2cc3c(s2)CCCC3)c(=O)n(-c2ccccc2)n1C`, 16.7%; under `COc1cccc(NC(=O)CN(C)C(=O)CN2C(=O)NC(C)(c3ccc4ccccc4c3)C2=O)c1` (stereo not drawn), -2.88%.
Consider `Cn1nnc2cc(NC(=O)N3CC4(C)CC3CC(C)(C)C4)ccc21` (stereo not drawn), for which the “hERG current change (%, negative = inhibition) at 10uM” value worked out at 4.57%.
Under `CCCCN1C(=O)c2ccc(C(=O)NCc3ccco3)cc2C1=O` stands -23.3%; under `OCCCNc1c2c(nc3cc(-c4ccc(Cl)cc4)nn13)CCC2`, -32.7%; under `CC(=O)CSc1nnc(-c2ccc3c(c2)OCO3)o1`, 4.77%.
Then `Cc1cc(OCC(=O)OCC(=O)N2CC(C)CC(C)C2)ccc1Cl` (stereo not drawn), with 3.65%.
`Cn1cc(CN2CCc3c([nH]c4ccccc34)C2C2CCCCC2)cn1` (stereo not drawn): the “hERG current change (%, negative = inhibition) at 10uM” value is -8.07%.
Then `O=c1[nH]c(=O)n(-c2cccc3ccccc23)c(O)c1C=NCCCn1ccnc1`, with 15.1%; and `COc1ccc(N2C(=O)CC(S/C(N)=N/N=C(\C)c3cccs3)C2=O)cc1` (stereo not drawn), with -26.4%.
With `C=CCOc1ccc(CNCc2cccnc2)cc1OCC.Cl`, the “hERG current change (%, negative = inhibition) at 10uM” value worked out at 16.3%.
Under `CCCn1c(CCC(=O)O)ccc1-c1ccc(OC)cc1` stands 4.61%; under `CCOC(=O)c1[nH]cnc1C(=O)N1CCN(C(=O)OC(C)(C)C)CC1`, 20.3%.
Under `CCCC1=Nc2cc(C(=O)NCc3ccco3)ccc2Sc2ccccc21` stands 1.84%; under `COc1ccc(-c2noc(CCc3ccccc3)n2)cc1`, 4.83%.
Then `Cc1cc(C)n(C(=O)CCN2C(=O)c3ccccc3C2=O)n1`, with 1.19%; and `Oc1cccc(Oc2ncc(C(F)(F)F)cc2Cl)c1`, with -13.4%.
On to `Cc1cc(C)n(S(=O)(=O)c2ccc(C)c(C)c2C)n1`, for which the “hERG current change (%, negative = inhibition) at 10uM” value is reported as -0.513%.
Consider `COC(=O)c1ccc(-n2nnnc2SCC(=O)Nc2cc(OC)ccc2OC)cc1`, for which the “hERG current change (%, negative = inhibition) at 10uM” value worked out at 2.37%.
Then `CCN(CC)C(=O)CSc1ccc(C(F)(F)F)cc1[N+](=O)[O-]`, with -9.76%; and `CC(NC(=O)C(c1ccccc1)c1ccccc1)c1ccccc1` (stereo not drawn), with 4.86%; and `N#Cc1c(-c2ccccc2)cc(-c2ccc(O)cc2)nc1N`, with 16.4%.
As to `COc1nc(NC23CC4CC(CC(C4)C2)C3)nc(OC)n1`, the “hERG current change (%, negative = inhibition) at 10uM” value is reported as -18%.
In the case of `CCOC(=O)CCc1c(C)c2ccc(OCC(=O)N(CC)CC)c(C)c2oc1=O`, the “hERG current change (%, negative = inhibition) at 10uM” value is -2.79%.
Take `CCCc1cc(=O)oc2c3c(cc(OCC(=O)N[C@@H](C)C(=O)O)c12)OC(C)(C)CC3`: the “hERG current change (%, negative = inhibition) at 10uM” value is on record as 28.1%.
